We go through one molecule from the supplement of paper PMC8728848.

Common to all, as to assay: glycan array binding signal (z-score within array); higher = stronger binding
Common to all, as to conditions: glycan notation: IUPAC condensed, linker removed

Test [1] has as its target Gal(b1-4)GlcNAc(b1-2)[Gal(b1-4)GlcNAc(b1-6)]Man(a1-6)[Gal(b1-4)GlcNAc(b1-2)Man(a1-3)]Man(b1-4)GlcNAc(b1-4)[Fuc(a1-6)]GlcNAc. A digest of the protocol:
(§1)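 The Consortium for Functional Glycomics database supplied 3228 glycan arrays, of which those lacking an available protein sequence were dropped. The binding signal, a within-array Z-score, was averaged across arrays of the same protein sequence and across linkers. Negative scores can be read as non-binding.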

Test [2] addresses Gal(b1-4)GlcNAc(b1-2)[Gal(b1-4)GlcNAc(b1-6)]Man(a1-6)[GlcNAc(b1-4)][Gal(b1-4)GlcNAc(b1-2)Man(a1-3)]Man(b1-4)GlcNAc(b1-4)GlcNAc. A digest of the protocol:
as §1

In test [3] the target is Gal(b1-4)GlcNAc(b1-2)[Gal(b1-4)GlcNAc(b1-6)]Man(a1-6)[GlcNAc(b1-4)][Gal(b1-4)GlcNAc(b1-2)[Gal(b1-4)GlcNAc(b1-4)]Man(a1-3)]Man(b1-4)GlcNAc(b1-4)[Fuc(a1-6)]GlcNAc. The method, boiled down: as §1
Test [4] has as its target Gal(b1-4)GlcNAc(b1-3)Gal(b1-3)GalNAc. The method, boiled down: as §1
Test [5] addresses Gal(b1-4)GlcNAc(b1-3)Gal(b1-3)GlcNAc. The method, boiled down:
as §1

The target of test [6] is Gal(b1-4)GlcNAc(b1-3)Gal(b1-4)Glc. A digest of the protocol: as §1
Test [7] has as its target Gal(b1-4)GlcNAc(b1-3)Gal(b1-4)GlcNAc. The method, boiled down:
as §1

Test [8] concerns the target Gal(b1-4)GlcNAc(b1-3)Gal(b1-4)GlcNAc(b1-2)Man(a1-3)[Gal(b1-4)GlcNAc(b1-3)Gal(b1-4)GlcNAc(b1-2)Man(a1-6)]Man(b1-4)GlcNAc(b1-4)GlcNAc. The method, boiled down: as §1
For test [9], the target named is Gal(b1-4)GlcNAc(b1-3)Gal(b1-4)GlcNAc(b1-2)Man(a1-3)[Gal(b1-4)GlcNAc(b1-3)Gal(b1-4)GlcNAc(b1-2)Man(a1-6)]Man(b1-4)GlcNAc(b1-4)[Fuc(a1-6)]GlcNAc. A digest of the protocol: as §1
In test [10] the target is Gal(b1-4)GlcNAc(b1-3)Gal(b1-4)GlcNAc(b1-2)[Gal(b1-4)GlcNAc(b1-3)Gal(b1-4)GlcNAc(b1-6)]Man(a1-6)[Gal(b1-4)GlcNAc(b1-3)Gal(b1-4)GlcNAc(b1-2)Man(a1-3)]Man(b1-4)GlcNAc(b1-4)GlcNAc. The method, boiled down:
as §1

Test [11] deals with Gal(b1-4)GlcNAc(b1-3)Gal(b1-4)GlcNAc(b1-2)[Gal(b1-4)GlcNAc(b1-3)Gal(b1-4)GlcNAc(b1-6)]Man(a1-6)[Gal(b1-4)GlcNAc(b1-3)Gal(b1-4)GlcNAc(b1-2)Man(a1-3)]Man(b1-4)GlcNAc(b1-4)[Fuc(a1-6)]GlcNAc. A digest of the protocol:
as §1

Test [12] has as its target Gal(b1-4)GlcNAc(b1-3)Gal(b1-4)GlcNAc(b1-3)Gal(b1-4)GlcNAc. A digest of the protocol: as §1
The target in test [13] is Gal(b1-4)GlcNAc(b1-3)Gal(b1-4)GlcNAc(b1-3)Gal(b1-4)GlcNAc(b1-2)Man(a1-3)[Gal(b1-4)GlcNAc(b1-3)Gal(b1-4)GlcNAc(b1-3)Gal(b1-4)GlcNAc(b1-2)Man(a1-6)]Man(b1-4)GlcNAc(b1-4)GlcNAc. A digest of the protocol:
as §1

For test [14], the target named is Gal(b1-4)GlcNAc(b1-3)Gal(b1-4)GlcNAc(b1-3)Gal(b1-4)GlcNAc(b1-2)Man(a1-3)[Gal(b1-4)GlcNAc(b1-3)Gal(b1-4)GlcNAc(b1-3)Gal(b1-4)GlcNAc(b1-2)Man(a1-6)]Man(b1-4)GlcNAc(b1-4)[Fuc(a1-6)]GlcNAc. A digest of the protocol: as §1
The target in test [15] is Gal(b1-4)GlcNAc(b1-3)Gal(b1-4)GlcNAc(b1-3)Gal(b1-4)GlcNAc(b1-2)[Gal(b1-4)GlcNAc(b1-3)Gal(b1-4)GlcNAc(b1-3)Gal(b1-4)GlcNAc(b1-6)]Man(a1-6)[Gal(b1-4)GlcNAc(b1-3)Gal(b1-4)GlcNAc(b1-3)Gal(b1-4)GlcNAc(b1-2)Man(a1-3)]Man(b1-4)GlcNAc(b1-4)[Fuc(a1-6)]GlcNAc. A digest of the protocol: as §1
For test [16], the target named is Gal(b1-4)GlcNAc(b1-3)Gal(b1-4)GlcNAc(b1-3)Gal(b1-4)GlcNAc(b1-3)Gal(b1-4)GlcNAc(b1-2)Man(a1-3)[Gal(b1-4)GlcNAc(b1-3)Gal(b1-4)GlcNAc(b1-3)Gal(b1-4)GlcNAc(b1-3)Gal(b1-4)GlcNAc(b1-2)Man(a1-6)]Man(b1-4)GlcNAc(b1-4)GlcNAc. A digest of the protocol:
as §1

The target in test [17] is Gal(b1-4)GlcNAc(b1-3)Gal(b1-4)GlcNAc(b1-3)Gal(b1-4)GlcNAc(b1-3)Gal(b1-4)GlcNAc(b1-2)Man(a1-3)[Gal(b1-4)GlcNAc(b1-3)Gal(b1-4)GlcNAc(b1-3)Gal(b1-4)GlcNAc(b1-3)Gal(b1-4)GlcNAc(b1-2)Man(a1-6)]Man(b1-4)GlcNAc(b1-4)[Fuc(a1-6)]GlcNAc. The method, boiled down: as §1
Test [18] has as its target Gal(b1-4)GlcNAc(b1-3)Gal(b1-4)GlcNAc(b1-3)Gal(b1-4)GlcNAc(b1-3)Gal(b1-4)GlcNAc(b1-2)[Gal(b1-4)GlcNAc(b1-3)Gal(b1-4)GlcNAc(b1-3)Gal(b1-4)GlcNAc(b1-3)Gal(b1-4)GlcNAc(b1-6)]Man(a1-6)[Gal(b1-4)GlcNAc(b1-3)Gal(b1-4)GlcNAc(b1-3)Gal(b1-4)GlcNAc(b1-3)Gal(b1-4)GlcNAc(b1-2)Man(a1-3)]Man(b1-4)GlcNAc(b1-4)[Fuc(a1-6)]GlcNAc. The method, boiled down: as §1
Test [19] has as its target Gal(b1-4)GlcNAc(b1-3)Gal(b1-4)GlcNAc(b1-3)Gal(b1-4)GlcNAc(b1-3)Gal(b1-4)GlcNAc(b1-3)Gal(b1-4)GlcNAc(b1-2)Man(a1-3)[Gal(b1-4)GlcNAc(b1-3)Gal(b1-4)GlcNAc(b1-3)Gal(b1-4)GlcNAc(b1-3)Gal(b1-4)GlcNAc(b1-3)Gal(b1-4)GlcNAc(b1-2)Man(a1-6)]Man(b1-4)GlcNAc(b1-4)GlcNAc. A digest of the protocol:
as §1

Test [20] has as its target Gal(b1-4)GlcNAc(b1-3)Gal(b1-4)GlcNAc(b1-3)Gal(b1-4)GlcNAc(b1-3)Gal(b1-4)GlcNAc(b1-3)Gal(b1-4)GlcNAc(b1-2)Man(a1-3)[Gal(b1-4)GlcNAc(b1-3)Gal(b1-4)GlcNAc(b1-3)Gal(b1-4)GlcNAc(b1-3)Gal(b1-4)GlcNAc(b1-3)Gal(b1-4)GlcNAc(b1-2)Man(a1-6)]Man(b1-4)GlcNAc(b1-4)[Fuc(a1-6)]GlcNAc. The method, boiled down: as §1
The target of test [21] is Gal(b1-4)GlcNAc(b1-3)Gal(b1-4)GlcNAc(b1-3)Gal(b1-4)GlcNAc(b1-3)Gal(b1-4)GlcNAc(b1-3)Gal(b1-4)GlcNAc(b1-2)[Gal(b1-4)GlcNAc(b1-3)Gal(b1-4)GlcNAc(b1-3)Gal(b1-4)GlcNAc(b1-3)Gal(b1-4)GlcNAc(b1-3)Gal(b1-4)GlcNAc(b1-6)]Man(a1-6)[Gal(b1-4)GlcNAc(b1-3)Gal(b1-4)GlcNAc(b1-3)Gal(b1-4)GlcNAc(b1-3)Gal(b1-4)GlcNAc(b1-3)Gal(b1-4)GlcNAc(b1-2)Man(a1-3)]Man(b1-4)GlcNAc(b1-4)[Fuc(a1-6)]GlcNAc. The method, boiled down:
as §1

In test [22] the target is Gal(b1-4)GlcNAc(b1-3)Gal(b1-4)GlcNAc(b1-3)Gal(b1-4)GlcNAc(b1-3)Gal(b1-4)GlcNAc(b1-3)Gal(b1-4)GlcNAc(b1-3)Gal(b1-4)GlcNAc(b1-2)Man(a1-3)[Gal(b1-4)GlcNAc(b1-3)Gal(b1-4)GlcNAc(b1-3)Gal(b1-4)GlcNAc(b1-3)Gal(b1-4)GlcNAc(b1-3)Gal(b1-4)GlcNAc(b1-3)Gal(b1-4)GlcNAc(b1-2)Man(a1-6)]Man(b1-4)GlcNAc(b1-4)GlcNAc. The method, boiled down:
as §1

Test [23] has as its target Gal(b1-4)GlcNAc(b1-3)Gal(b1-4)GlcNAc(b1-3)GalNAc. A digest of the protocol:
as §1

Some of the results follow.

B1: CFEM-CGl (Candida glabrata), Q6FRS0 (protein)
chain: VLATPPACLLACVAQVSKQSSQCHTLNQVGCFCENENTAIKNCLDSICPNGNSDAAYTAFKNSCGDVGKAVASV
Consider B1, for which the “glycan array binding signal (z-score)” value in [1] is -0.262; in [2] it was -0.456; in test [3] it was -0.322; in test [4], -0.021; in test [5], 0.044; in [6] it was -0.186. The “glycan array binding signal (z-score)” value is -0.288 in test [7]; 4.99 in test [8]; 0.055 in [9]; 0.983 in [10]; 0.121 in test [11]; -0.333 in test [12]. Moreover, the “glycan array binding signal (z-score)” value in test [13] is 1.2; in [14], 0.099; in [15] it was 0.152; in test [16] it was -0.107; in test [17], -0.096; in [18] it was 0.09. In addition, the “glycan array binding signal (z-score)” value in test [19] was -0.192; in [20], 0.039; in [21], 0.454; in test [22], -0.009; in test [23] it was 0.84.
